# Assay results published in paper PMC12040169 (PLOS Biology, 2025).
# This is one part of the list.
# System: T1, C. trachomatis L2/434/Bu expressing GFP (CTL2-GFP)
# T1 construct: L2/434/Bu GFP intracellular growth in HeLa cells
# Parameters: species or system HeLa; C. trachomatis total inclusion area by high-content imaging, normalised to DMSO
# Settings: total inclusion area; 28.5 h, 10 µM; inhibitor
# How it was run: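 Post-fluorescence-read fixation, DNA staining with Hoechst and high-content imaging; GFP inclusion area and number per well, and nuclei counts, used as proxies for bacterial growth and host viability.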
row,Compound,% of control remaining
1,O=C(O)/C=C\C(=O)Nc1ccc(Cl)c(NC(=O)Cc2ccccc2)c1 [CBK263955],107.295
2,COc1ccc(-c2ccc(N3CCN(CCN(C)C)CC3)nc2)cc1OC [CBK036818],118.682
3,Cn1ncc2c1CCCN(C(=O)COc1ccc(C(C)(C)C)cc1)C2 [CBK285286],98.6154
4,Cc1ccccc1NS(=O)(=O)c1ccc(OCC(=O)N2CCN(c3cc(Cl)ccc3C)CC2)cc1 [CBK267649],113.25
5,COc1ccc(CCNS(=O)(=O)c2ccc(C3CNC(=O)C3)cc2)cc1OC (stereo not shown) [CBK268352],96.8376
6,CCCCNc1cc(N2CCN(c3cnn(C)c3)C(=O)C2)nc(N)n1 [CBK306260],37.5654
7,COc1cnc(-c2ccccc2)c(NC(C)=O)n1 [CBK145410],92.7152
8,O=C(O)CCN1CCN(Cc2ccc(Cl)cc2)CC1 [CBK287271],99.6033
9,Brc1ccc2nc3c(nc2c1)Nc1nonc1N3 [CBK262414],60.9164
10,CN(C)c1ccccc1-c1cnc(N2CCOCC2)c2nccn12 [CBK091280],109.381
11,C/C(=N\NC(=O)c1ccccc1I)c1cccc(N)c1 [CBK260935],90.2678
12,O=C(CC1CCCC1)N1CCC(c2cc(CCOc3cccc(C(F)(F)F)c3)[nH]n2)C1 (stereo not shown) [CBK286267],90.8791
13,COc1ccc(CNC(=O)CSc2nnc(-c3ccncc3)n2C)cc1 [CBK266613],116.488
14,O=C(Nc1ccc(Cl)c(S(=O)(=O)N2CCCC2)c1)c1cnccn1 [CBK295176],123.284
15,O=C(O)c1cc(NS(=O)(=O)c2ccc(N3CCCCC3)c([N+](=O)[O-])c2)cc(C(=O)O)c1 [CBK263876],78.9028
16,N=C(N/N=C\c1ccncc1)N/N=C\c1ccncc1 [CBK263278C],99.1
17,COCCn1c(SCc2cn3c(C)cccc3n2)nc(C)c1C [CBK304050],100.026
18,CCOC(=O)c1c(NC(=O)c2nc3ncccn3n2)sc(C)c1C [CBK267630],114.263
19,O=C(CN1CCN(c2ccc(C(F)(F)F)cn2)CC1)c1ccccc1 [CBK074699],56.204
20,CN(C)CCN(C)c1cccc(-c2cccc(OC(F)(F)F)c2)n1 [CBK037020],125.172
21,Cc1cn2cccc(C(=O)N3CCCCC3CCN3CCOCC3)c2n1 (stereo not shown) [CBK306518],73.9752
22,Cc1noc(C)c1C(=O)N1CC[C@H]2NC(=O)c3ccccc3OCC/C=C/C[C@H]2C1 [CBK291994],79.8062
